# Screen size: about 110,000 compounds; about 230 (0.21%) showed an effect of 50% or more. The list shows a part of the results.
# Target: DPAP1 (Plasmodium falciparum, UniProt Q8IIJ9)
# Test: primary screen, percent inhibition; read by cleavage of a fluorogenic dipeptide substrate; higher = more effect of the substance
# Set-up: species or system P. falciparum D10 trophozoite lysates; single well
# 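Note: 30 min substrate incubation versus DMSO and 10 µM JCP410 controls.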
# Sequence of DPAP1 (Q8IIJ9 whole entry, looked up): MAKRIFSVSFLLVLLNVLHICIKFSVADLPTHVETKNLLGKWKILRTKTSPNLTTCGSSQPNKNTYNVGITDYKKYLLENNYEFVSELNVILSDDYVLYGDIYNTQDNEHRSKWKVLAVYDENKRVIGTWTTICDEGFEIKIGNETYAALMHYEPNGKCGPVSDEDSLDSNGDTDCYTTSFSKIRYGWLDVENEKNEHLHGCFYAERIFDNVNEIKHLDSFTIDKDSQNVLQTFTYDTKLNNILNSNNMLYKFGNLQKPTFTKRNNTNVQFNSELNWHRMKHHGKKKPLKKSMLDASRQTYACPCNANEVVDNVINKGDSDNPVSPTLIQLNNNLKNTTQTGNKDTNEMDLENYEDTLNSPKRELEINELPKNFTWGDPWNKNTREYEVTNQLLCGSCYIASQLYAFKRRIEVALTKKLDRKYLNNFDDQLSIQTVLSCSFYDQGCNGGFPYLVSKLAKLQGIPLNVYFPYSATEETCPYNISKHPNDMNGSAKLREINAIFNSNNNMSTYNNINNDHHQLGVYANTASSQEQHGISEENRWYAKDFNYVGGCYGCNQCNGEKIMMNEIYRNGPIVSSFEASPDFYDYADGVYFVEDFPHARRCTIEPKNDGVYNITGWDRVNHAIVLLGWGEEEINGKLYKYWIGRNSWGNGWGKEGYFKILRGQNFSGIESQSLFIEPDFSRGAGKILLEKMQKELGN
row,SMILES,% Inhibition @ 10 uM [%]
1,COc1ccc(-c2cc(-c3ccccc3)nc(SCC(=N)NC#N)c2C#N)cc1,33.3
2,C=CCn1c(SCC(=O)NCCOc2ccccc2)nnc1-c1ccc(OC)cc1,-7.3
3,Cc1cc(OCC(=O)Nc2cc(Cl)ccc2C)ccc1Br,-4.87
4,CCOc1ccc(NC(=O)CSc2nc3ccc(OC)cc3cc2C#N)cc1,-2.64
5,CC1(C)CC2=Nc3ccccc3NC(c3cc(Cl)ccc3O)C2=C(O)C1 (stereo not drawn),-2.07
6,CCN1CCN(CCCNC(=O)c2cc3sccc3n2CC)CC1,-3.08
7,COc1cc2cc(C(=O)Nc3ccccc3)c(N)nc2cc1OC,-18.8
8,O=C(Cn1ncc2c3ccccc3nc-2c1O)N1CCN(Cc2ccc3c(c2)OCO3)CC1,-0.968
9,N#CC1=C2SCN(Cc3ccco3)CN2C(=O)CC1c1cccc(OCc2ccccc2)c1 (stereo not drawn),66.7
10,COc1cc(/C=C2/SC(N3CCCCC3)=NC2=O)ccc1O,-4.89
11,COc1cc(CNCCSc2nnnn2C)cc(Br)c1OCc1cccnc1,-7.24
12,COC(=O)C(Cc1ccc(O)cc1)NC(=O)c1ccccc1OC (stereo not drawn),11.6
13,CC(=O)NS(=O)(=O)c1ccc(NC(=O)c2ccccc2Cl)cc1,1.49
14,CN(Cc1cccc(Cl)c1Cl)CC(O)c1ccccc1 (stereo not drawn),-1.75
15,Cc1ccccc1NC(=O)c1cccc(-n2c(C)ccc2C)c1,-7.35
16,O=c1c2ccccc2nc(-c2ccco2)n1Cc1ccccc1,0.76
17,C(#CC1(N2CCOCC2)CCCC1)c1ccccc1,3.01
18,C=CCn1c(=O)c(C(=O)Nc2cccnc2)c(O)c2ccccc21,-8.75
19,Cn1c(NCc2cccnc2)nc2c1c(=O)n(Cc1ccccc1F)c(=O)n2C,-1.47
20,O=C(NCCO)C1(c2ccccc2)CCCC1,-0.641
21,CCn1cc(C(=O)O)cn1,-5
22,CCOc1ccc(C(=O)NC(C)CC(C)C)cc1 (stereo not drawn),-1.42
23,Cc1nn(CC(=O)NCCC(C)C)c(=O)c2nn(-c3ccccc3)c(C)c12,5.3
24,CCCc1ccc(C#N)c(SCc2nnc(-c3ccc(Cl)cc3)o2)n1,0.408
25,CC1CC(C)CN(CCCNC(=O)Cn2ncc3c4ccccc4nc-3c2O)C1 (stereo not drawn),3.27
26,COC(=O)c1cc(Oc2ncnc3sc(C)c(C)c23)cc(C(=O)OC)c1,-10.8

row,SMILES,% Inhibition @ 10 uM [%]
1,CC(NS(=O)(=O)c1ccc(CCC(=O)Nc2ccccc2)cc1)c1ccccc1 (stereo not drawn),-0.519
2,CCOC(=O)C1=C(CS(=O)(=O)c2ccc(C)c(C)c2)NC(=O)NC1c1ccc(O)c(O)c1 (stereo not drawn),-2.16
3,Cc1ccc(C)c(Cn2c(CN3CC(C)OC(C)C3)nc3c2c(=O)n(C)c(=O)n3C)c1 (stereo not drawn),-0.499
4,CC(C)CCNC(=O)COc1cc(Cl)c(Cl)cc1Cl,-1.55
5,CSc1ccc(C2SCC(=O)N2C2CCCCC2)cc1 (stereo not drawn),-3.08
6,CCN(CC)C1CC(=O)N(c2c(C)cc(C)cc2C)C1=O (stereo not drawn),-3.65
7,COc1c(C(C)C)oc2cc3oc(=O)ccc3cc12,2.13
8,O=C(Cn1c(=O)c2cccn2c2cccnc21)N1CCN(Cc2ccccc2)CC1,-3.56
9,CC(=O)c1ccc(NC(=O)C23CC4CC(CC(C4)C2)C3)cc1,-6.22
10,O=C(NCc1ccco1)N(Cc1ccc2c(c1)OCO2)C1CCN(Cc2ccccc2)CC1,5.14
11,Cc1ccc2c(c1)-c1c(cnn1CC(=O)N(CCN(C)C)Cc1ccco1)CO2,-5.03
12,N#Cc1c(N)nc2c(c1-c1cccc(O)c1)CCCCC2,-2.7
13,COc1cc(CN2CCN(Cc3ccccc3)CC2)cc(OC)c1O,1.48
14,Cc1onc(-c2ccccc2)c1C(=O)N1CCCc2ccccc21,-5.46
15,COc1cc(NC(=O)COc2ccccc2)c(C(=O)O)cc1OC,-3.72
16,CCOC(=O)C1CCN(C(=O)c2ccc([N+](=O)[O-])o2)CC1,5.69
17,COc1cc(-c2cc(NC(=O)c3noc4c3CCCCC4)on2)cc(OC)c1OC,1.23
18,O=C(O)C1CCCN(S(=O)(=O)N2CCCCC2)C1 (stereo not drawn),-1.6
19,CCOc1ccc(NC(=O)CN(Cc2ccccc2)S(C)(=O)=O)cc1,0.512
20,COCCN1C(=O)c2ccccc2C1=O,-2.83
21,CN1CCN(C(=O)/C(=C/c2ccco2)NC(=O)c2ccccc2)CC1,4.07
22,CCOC(=O)c1cc(-c2ccc(OC)c(S(=O)(=O)NCCOC)c2)on1,-9.47
23,CC(C)CCNC(=O)Cn1cccc1C(=O)c1ccccc1,1.15
24,O=C1C2CC3CC1CC(C(=O)N1CCOCC1)(C3)C2,-1.05
25,Cc1nn(Cc2noc(C(=O)NCc3ccco3)n2)c(C)c1Br,-2.28
26,CCS(=O)(=O)c1ncc(Cl)c(C(=O)Nc2sc3c(c2C(=O)NC)CCCC3)n1,-6.5

row,SMILES,% Inhibition @ 10 uM [%]
1,CCOc1ccc2nc(/N=C/c3nc(-c4ccccc4)oc3O)sc2c1,-2.27
2,CCCOc1ccc(Cc2nn3c(=O)/c(=C\C4=Cc5ccccc5OC4)sc3nc2=O)cc1,2.9
3,Cc1ccc(C2C(C#N)=C(N)OC3=C2C(=O)CC(C)(C)C3)cc1 (stereo not drawn),-4.35
4,CCN(CC)CCCNC(=O)c1ccccc1F,0.795
5,COc1ccccc1C(=O)N/C(=C/c1ccc2c(c1)OCO2)C(=O)Nc1ccc(C(=O)O)cc1,4.01
6,COc1ccc(-c2nc(Cn3c(SCc4cccc(OC)c4)nc4ccncc43)c(C)o2)cc1,-4.38
7,CCC(C(=O)Nc1nnc(S(=O)(=O)N(C)Cc2ccccc2)s1)c1ccccc1 (stereo not drawn),1.36
8,OC(CN1CCOCC1)CN(c1ccccc1)c1ccccc1 (stereo not drawn),-0.239
9,Cc1ccc(Oc2nc3c(C)cccn3c(=O)c2/C=C(\C#N)C(=O)NCCCOC(C)C)cc1,-1.43
10,Cc1ccc(O)c(NC(=O)c2ccc(Cl)cc2Cl)c1,1.92
11,COc1cc(C2c3c(C)n[nH]c3C(=O)N2C)ccc1O (stereo not drawn),2.29
12,CCN(Cc1ccccc1)C(=O)c1ccc(Cl)cc1,1.87
13,Cc1c(-c2ccccc2)nc2sc3c(c2c1N)CCCC3,1.27
14,CCCc1[nH]nc2c1C(c1ccc(Cl)c(Cl)c1)C(C#N)=C(N)O2 (stereo not drawn),-2.24
15,CCOc1ccc(C(=O)Nc2nnc(S(=O)(=O)N(C)Cc3ccco3)s2)cc1,5.8
16,CCc1ccc(C2=NN(CCC(=O)N3CCC4(CC3)OCCO4)C(=O)CC2)cc1,-0.971
17,O=C1CSC(c2ccccc2F)N1Cc1ccccc1 (stereo not drawn),1.52
18,CCOc1cc(C)c(/C=C2\SC(=O)N(CC(=O)N3CCOCC3)C2=O)cc1C(C)C,1.52
19,CC(=O)N1CCN(c2ccc(NCc3c(Cl)cccc3Cl)cc2)CC1,2.44
20,CCC1CCCCN1C(=O)Cn1nc(C)n2c(cc3cc(C)ccc32)c1=O (stereo not drawn),-2
21,O=S(=O)(c1ccc2nc(O)ccc2c1)N(CCc1ccccc1)Cc1ccccc1,6.38
22,CCCc1ncc(C(O)(c2ccccc2)c2ccccc2)n1C,-1.54
23,CCCOc1ccccc1C(=O)N[C@@H](CC(C)C)C(=O)NCC#N,12.3
24,Fc1ccc(CN2CCN(c3ccc(Cl)cc3)CC2)cc1F,-3.77
25,COCCCNC(=O)CCCc1cn(C)c2ccccc12,0.0845
26,Cc1ccc(/C=C2/SC(=O)N(CC(=O)Nc3ccccc3C)C2=O)s1,2.22

row,SMILES,% Inhibition @ 10 uM [%]
1,CCOC(=O)C1=C(CN2CCN(C)CC2)NC(=O)NC1c1ccc(OC(C)C)cc1 (stereo not drawn),0.708
2,CC12CCC3c4ccc(O)c(Br)c4CCC3C1CCC2=O (stereo not drawn),-2.15
3,O=C(Nc1cccc(-c2cn3ccsc3n2)c1)c1ccc(Cl)cc1,-4.03
4,CCN(CC)c1ccc(NC(=O)C2CC[C@](C)(C(=O)O)C2(C)C)cc1 (stereo partly drawn),3.53
5,Cc1c(O)nc(-c2ccccc2)nc1-c1ccccc1,1.15
6,O=C(Cn1ncn2c(cc3sccc32)c1=O)NCc1ccccc1Cl,-7.1
7,CC1CCCCN1c1ncnc2ccccc12 (stereo not drawn),-2.47
8,CCN1CCN(CC(=O)Nc2sc3c(c2C#N)CCCC3)CC1,38
9,O=C(CCCc1c[nH]c2ccccc12)NC1=NCCS1,0.238
10,Cc1c(Cl)cccc1-n1nnc(-c2nc(-c3ccncc3)no2)c1N,3.98
11,CC(C)Nc1ncnc2c1c(-c1ccccc1)cn2-c1ccccc1,5.23
12,CCOc1ccc(Sc2cc(C(=O)NCc3ccco3)c3ccccc3n2)cc1,-0.0542
13,Cc1ccccc1NS(=O)(=O)c1cc(C(=O)O)cc(C)c1C,-7
14,CCCCOc1ccc(C(=O)Nc2cccc(C(=O)O)c2)cc1,0.035
15,Cc1ccc(CN2CCc3c([nH]c4ccccc34)C2)o1,-3.27
16,CC(NC(=O)Nc1cccc(Cl)c1)c1ccccc1 (stereo not drawn),-3.56
17,N#Cc1cccc(NC(=O)c2ccc(-c3ccccc3)cc2)c1,-0.771
18,CCOCCCNCc1ccc(OC)cc1,-4.97
19,Clc1ccc(C2=CSC3=NCCN23)cc1Cl,3.06
20,CC[C@H](NC(=O)[C@H](CCC(=O)Nc1ccccc1)NC(=O)c1ccc(Br)cc1)C(=O)c1nc2ccccc2o1,0.173
21,CCCC(=O)N1CCC(c2ccc(OC)cc2)=N1,2.25
22,COc1ccc(OC)c2nc(O)c(CCNS(=O)(=O)c3c(C)cc(C)cc3C)cc12,-0.396
23,CCc1ccc(CN(C(=O)c2ccco2)C2CCS(=O)(=O)C2)cc1 (stereo not drawn),-4.62
24,NC(=O)CCC1S(=O)(=O)CC(c2ccccc2)CS1(=O)=O (stereo not drawn),-2.55
